Reference: publication PMC12136788
The other results are listed elsewhere or left out.

T1: UNK ZnF1-3 (human, UniProt Q9C0B0 31-174)
T1 sequence: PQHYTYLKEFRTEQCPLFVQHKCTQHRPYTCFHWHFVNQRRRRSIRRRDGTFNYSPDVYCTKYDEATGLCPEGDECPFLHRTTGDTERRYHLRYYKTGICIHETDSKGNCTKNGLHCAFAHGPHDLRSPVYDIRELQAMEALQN

B1: 59389766_59402276_1209_3pUTR_ENSMUSG00000074746_ENSMUST00000099274|mouse|control|control (ssRNA)
RNA: GGGAGUUCUACAGUCCGACGAUCUGUUUUUCUUCCCAAACACCACUGCUCAGCUCAAGUGUGCAAUGAACAUUUGUUUCUCUGUCAUAGGAUCCAAAAAUGAAUAACCUGCUACAUUCUAACAAUGUAACUUUAAGCCGGCCUCAACAGAGGAUUGAGCAUCA
B2: 139305153_139306530_102_CDS_ENSG00000165688_ENST00000371717|human|control|control (ssRNA)
RNA: GGGAGUUCUACAGUCCGACGAUCUACUCCAGGUAAGGGAGAAGAGAGGGGGAUGUUGGGAUAGGCACCACCACUACUAAACCGUCUGUACGCAGGAGGUCCAAACCUCAGCCGCGAACAGCCCCAAGAACCCGAGCCCCGCAGCAACAGAGGAUUGAGCAUCA
B3: chr19:8913615:8913616:-_ENSMUSG00000071658_ENSMUST00000096259|mus_hu|mus_mus_mus_hu_False|8_38 (ssRNA)
RNA: GGGAGUUCUACAGUCCGACGAUCAGGGUACCAAAACCUUCUGCCUGAAAUGGGUGCCCCACCCAGUAGGGAGUUGCAGCUGAAAGUAUCUGAUGCACUGACAGUUACUAUACGAAAGGAGGCCCCUGAUGCUCAGAAGGCCAGCAACAGAGGAUUGAGCAUCA
B4: chr1:193065829:193065830:-_ENSG00000023572_ENST00000367439|hu_hu|motif|central (ssRNA)
RNA: GGGAGUUCUACAGUCCGACGAUCUUUUUUUAAAUAACACUGAUGAACUAGUGGGAGCAAUUUUCCUUCUUUGUGAAGCCGGUGAGUGUCAGUUGCACCUCCAAUAAAAGUACCAUUGACAAAUAUUCUUGGAACAGUUCUUUCCAACAGAGGAUUGAGCAUCA
B5: 28694835_28713128_1523_3pUTR_ENSMUSG00000048271_ENSMUST00000114884|mouse|control|control (ssRNA)
RNA: GGGAGUUCUACAGUCCGACGAUCUGGGGGUGGGGCUCUCCACUGGUCCUGGAGAGGAAGUCUAGGUGGCUGGUUAAAACUGUUGGGAACAGGUCCAGGUGUGUGCUGUGGAAAUUCUGGAGGGCCUGGAAAUCUUUGGGGUCCCAACAGAGGAUUGAGCAUCA
B6: chr14:34224135:34224136:-_ENSMUSG00000021936_ENSMUST00000111945|mus_mus|motif|central (ssRNA)
RNA: GGGAGUUCUACAGUCCGACGAUCCUUUAAAUUCUGGUAUCGUUUUAGGACUGUGAAUGUAGAAUCUCCAAUCUCGGCACGGUAAAAAUUGUUGUCACGUUUGCUUCUGCUCAUGAUGGCAAGCAAUUAGUCUAAUGGCUUCAUCAACAGAGGAUUGAGCAUCA
B7: chr20:60962932:60962933:+_ENSG00000171858_ENST00000343986|hu_mus|FALSE|FALSE (ssRNA)
RNA: GGGAGUUCUACAGUCCGACGAUCAGAAUCAUCUGACUCGCCCAUCCUGCGAAUGGCCCCGCAGAUGCCAUAGGUUUUAAACUGGCCAUUAAACCGGCCUGUGGUCCUAUCAACCUCGGCCACGUUCAUCUGGAUGGACGCGUGCAACAGAGGAUUGAGCAUCA
B8: chr7:65705475:65705476:+_ENSG00000169902_ENST00000304842|hu_hu|hu_hu_hu_mus_True|18_108 (ssRNA)
RNA: GGGAGUUCUACAGUCCGACGAUCUCUAUCCGGUGAUGGCACUCCAUGGCAUGCUGGCCCAGGUAAAACACGGUCACAGAACUAAUCACCAGACACGCCAAGAGUAAGUUCUGCUUCAGCUUUCCAACCAUCUUGAUGUGGUUACAACAGAGGAUUGAGCAUCA
B9: chrX:70776531:70776532:+_ENSG00000147162_ENST00000373719|perfect_dup|motif|central (ssRNA)
RNA: GGGAGUUCUACAGUCCGACGAUCCUGCUGCAGUACACUUGCUAAAUUUGAAUGGGCAGCAGCAAACUCUGGGAAGACUUCGGAUGCUUUACGAUACAAGCGAACUGCCUCUUCAAUGUUUCCCUGUUCUCGUUUGAUAUUGGCCAACAGAGGAUUGAGCAUCA
B10: chr7:112906983:112906984:-_ENSMUSG00000036862_ENSMUST00000078482|mus_hu|FALSE|FALSE (ssRNA)
RNA: GGGAGUUCUACAGUCCGACGAUCGGGGGAGACAAUAGGAGUCCCUGGGGGCGCAUUCUCACGAAUCGUAGCCUCACUGCUAGCCCGGGGAAAGCGGGGUCCACGCUCAGCUUCCCCCUGCAGUCCAACAAUGAUCACACCAGUCAACAGAGGAUUGAGCAUCA
B11: chr7:44244176:44244177:+_ENSG00000106636_ENST00000223369|hu_mus|hu_hu_hu_mus_False|38_58 (ssRNA)
RNA: GGGAGUUCUACAGUCCGACGAUCACUGUCGCUCCGGACGUAGACAUGGCAAAGAUACUCUUGUUCUUUGACAGAAGCUCUAGUGCCUUUCCCCGAGCGCUCCACAAUCAGUUGACUUGUAAAGGUCAUGAAUUCCUGCACACUCAACAGAGGAUUGAGCAUCA
B12: 67696332_67698441_936_CDS_ENSG00000111530_ENST00000540319|human|control|control (ssRNA)
RNA: GGGAGUUCUACAGUCCGACGAUCGGUCUUCACACUUUUUUCUUUCAUCUGUUUGUGAAGAGCUUUAACAAUGUUGGGAACCUGACUCUGAAGCAUUGUUAAAGGUGUUUCUCCCUGCUCCAUUGCAUCAGGGUCACAUAGCCACAACAGAGGAUUGAGCAUCA
B13: chr7:54823571:54823572:-_ENSG00000132432_ENST00000352861|hu_mus|hu_hu_hu_mus_False|8_28 (ssRNA)
RNA: GGGAGUUCUACAGUCCGACGAUCUCCCAUGAUAGCAAAUCCUAUAGCUGUAGCCAUGGCAAUCUUCUGGAAUUCUUUUCUGUCGGGUUUGGUGCAUCUUUUAACCAGCCGAAUGGAGUCCUUUACAAACUGCCGACUGGGCUCCAACAGAGGAUUGAGCAUCA
B14: chr9:66219948:66219949:+_ENSMUSG00000038664_ENSMUST00000042824|mus_mus|FALSE|FALSE (ssRNA)
RNA: GGGAGUUCUACAGUCCGACGAUCCUGUUUCACUUUGCCUUUGUCAUGGUACUUAUUAGAAAGUGCAUAAAAGACACGUUGGAGUACAAGCAGUCGUUUUCUUAGCGCCCCAGCAAAUGGAGAAUCUGAACAUACCAUCUUUGCCAACAGAGGAUUGAGCAUCA

Each binder was assayed against T1, UNK ZnF1-3 (assay: nsRBNS (natural sequence RNA bind-n-seq); RBNS binding buffer (assumed for nsRBNS): 25 mM Tris pH 7.5, 150 mM KCl, 3 mM MgCl2, 0.01% Triton X-100, 500 ug/ml BSA, 20 U/ml SUPERase-In, 4 C; UNK is unkempt and MSI1 is Musashi-1; names of the RNAs are library labels; protein concentration not given here; high values mean tight binding).

Binder	binding signal [enrichment R]
B1	0.858
B2	1.63
B3	0.756
B4	1.27
B5	1.6
B6	0.68
B7	0.281
B8	0.54
B9	0.919
B10	0.809
B11	0.718
B12	0.43
B13	0.781
B14	1.16
